Laboratory results: the supplement of paper PMC7125110
± gives the standard error. Variants at the floor of the assay are shown more often than the library holds them.

B1: glmS ribozyme (parent)
chain: AUAAAAGCGCCAGAACUACAGAAAUGUAGUUGACGAGGAGGAGGUUUAUCGAAUUUUCGGCGGAUGCCUCCAAA

Assays:
Settings in all cases: with glucosamine-6-phosphate
glucosamine-6-phosphate [1] = variants of: B1; test: self-cleavage kobs at 640 uM GlcN6P; higher = faster cleavage; RNA array
Summary of the method: (§1)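 Sequenced MiSeq chips were the platform: E. coli RNA polymerase transcribed barcoded ribozyme variants on them in situ, and a hybridised Cy3 probe tracked these at 37 °C. After glucosamine-6-phosphate (40 μM to 10 mM) in HEPES/KCl/Mg(OAc)2 buffer was flowed in, tiles were imaged over ~14 h. Signals normalised to baseline and to non-cleaving reference variants were reduced to per-tile medians and fit to one- or two-exponential decays to obtain kobs. kcat and KM were derived through weighted Michaelis–Menten fits across concentrations.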

glucosamine-6-phosphate [2] = variants of: B1; test: self-cleavage kobs at 2500 uM GlcN6P; higher = faster cleavage; RNA array
Summary of the method: as §1

glucosamine-6-phosphate [3] = variants of: B1; test: self-cleavage kobs at 10000 uM GlcN6P; higher = faster cleavage; RNA array
Summary of the method: as §1

glucosamine-6-phosphate [4] = variants of: B1; test: self-cleavage kobs at 160 uM GlcN6P; higher = faster cleavage; RNA array
Summary of the method: as §1

G41U C58U C67A
self-cleavage kobs at 640 uM GlcN6P (glucosamine-6-phosphate [1]): < 1e-05 s⁻¹
self-cleavage kobs at 2500 uM GlcN6P (glucosamine-6-phosphate [2]): < 1e-05 s⁻¹

G44C U65A C70G
self-cleavage kobs at 640 uM GlcN6P (glucosamine-6-phosphate [1]): < 1e-05 s⁻¹
self-cleavage kobs at 2500 uM GlcN6P (glucosamine-6-phosphate [2]): < 1e-05 s⁻¹
self-cleavage kobs at 10000 uM GlcN6P (glucosamine-6-phosphate [3]): < 1e-05 s⁻¹

A36G G43C
self-cleavage kobs at 640 uM GlcN6P (glucosamine-6-phosphate [1]): < 1e-05 s⁻¹
self-cleavage kobs at 2500 uM GlcN6P (glucosamine-6-phosphate [2]): < 1e-05 s⁻¹

A6C G9U
self-cleavage kobs at 160 uM GlcN6P (glucosamine-6-phosphate [4]): < 1e-05 s⁻¹
self-cleavage kobs at 2500 uM GlcN6P (glucosamine-6-phosphate [2]): < 1e-05 s⁻¹
self-cleavage kobs at 10000 uM GlcN6P (glucosamine-6-phosphate [3]): < 1e-05 s⁻¹

A39C G43A G66A
self-cleavage kobs at 640 uM GlcN6P (glucosamine-6-phosphate [1]): < 1e-05 s⁻¹

A6G C10A G35A A36G G43A G63U
self-cleavage kobs at 2500 uM GlcN6P (glucosamine-6-phosphate [2]): < 1e-05 s⁻¹

C10U A12U A14G G41U
self-cleavage kobs at 160 uM GlcN6P (glucosamine-6-phosphate [4]): < 1e-05 s⁻¹

A39G G40C
self-cleavage kobs at 640 uM GlcN6P (glucosamine-6-phosphate [1]): 4.2e-05 ± 1.4e-05 s⁻¹
self-cleavage kobs at 2500 uM GlcN6P (glucosamine-6-phosphate [2]): 0.000101 ± 1.8e-05 s⁻¹
self-cleavage kobs at 10000 uM GlcN6P (glucosamine-6-phosphate [3]): 8.35e-05 ± 1.4e-05 s⁻¹

A14G A52C U57A C71G
self-cleavage kobs at 160 uM GlcN6P (glucosamine-6-phosphate [4]): < 1e-05 s⁻¹

U45C C50A G62U G66C
self-cleavage kobs at 640 uM GlcN6P (glucosamine-6-phosphate [1]): < 1e-05 s⁻¹

C58A C67U
self-cleavage kobs at 640 uM GlcN6P (glucosamine-6-phosphate [1]): 6.4e-05 ± 1e-05 s⁻¹
self-cleavage kobs at 2500 uM GlcN6P (glucosamine-6-phosphate [2]): 0.000161 ± 2e-05 s⁻¹
self-cleavage kobs at 10000 uM GlcN6P (glucosamine-6-phosphate [3]): 0.000182 ± 1.7e-05 s⁻¹

A14C G63U
self-cleavage kobs at 160 uM GlcN6P (glucosamine-6-phosphate [4]): < 1e-05 s⁻¹
self-cleavage kobs at 10000 uM GlcN6P (glucosamine-6-phosphate [3]): < 1e-05 s⁻¹

G37C U47C G60U
self-cleavage kobs at 160 uM GlcN6P (glucosamine-6-phosphate [4]): < 1e-05 s⁻¹

A48G U57G
self-cleavage kobs at 640 uM GlcN6P (glucosamine-6-phosphate [1]): < 1e-05 s⁻¹
self-cleavage kobs at 160 uM GlcN6P (glucosamine-6-phosphate [4]): < 1e-05 s⁻¹

C10U A15U G43A A53G
self-cleavage kobs at 160 uM GlcN6P (glucosamine-6-phosphate [4]): < 1e-05 s⁻¹
self-cleavage kobs at 2500 uM GlcN6P (glucosamine-6-phosphate [2]): < 1e-05 s⁻¹

G44U A53G U57G
self-cleavage kobs at 160 uM GlcN6P (glucosamine-6-phosphate [4]): < 1e-05 s⁻¹
self-cleavage kobs at 2500 uM GlcN6P (glucosamine-6-phosphate [2]): < 1e-05 s⁻¹

G38C U57G G59A
self-cleavage kobs at 640 uM GlcN6P (glucosamine-6-phosphate [1]): < 1e-05 s⁻¹
self-cleavage kobs at 160 uM GlcN6P (glucosamine-6-phosphate [4]): < 1e-05 s⁻¹
self-cleavage kobs at 2500 uM GlcN6P (glucosamine-6-phosphate [2]): < 1e-05 s⁻¹

G38A G44A G66U
self-cleavage kobs at 160 uM GlcN6P (glucosamine-6-phosphate [4]): < 1e-05 s⁻¹
self-cleavage kobs at 2500 uM GlcN6P (glucosamine-6-phosphate [2]): < 1e-05 s⁻¹

G38C A42G U49G A52G G63C
self-cleavage kobs at 640 uM GlcN6P (glucosamine-6-phosphate [1]): < 1e-05 s⁻¹
self-cleavage kobs at 2500 uM GlcN6P (glucosamine-6-phosphate [2]): < 1e-05 s⁻¹

U49G A52C A53G U55C C61A
self-cleavage kobs at 640 uM GlcN6P (glucosamine-6-phosphate [1]): < 1e-05 s⁻¹

C50U A53C
self-cleavage kobs at 640 uM GlcN6P (glucosamine-6-phosphate [1]): < 1e-05 s⁻¹

G40U U54A C61A
self-cleavage kobs at 640 uM GlcN6P (glucosamine-6-phosphate [1]): < 1e-05 s⁻¹
self-cleavage kobs at 2500 uM GlcN6P (glucosamine-6-phosphate [2]): < 1e-05 s⁻¹
self-cleavage kobs at 10000 uM GlcN6P (glucosamine-6-phosphate [3]): < 1e-05 s⁻¹

G38C U55A
self-cleavage kobs at 640 uM GlcN6P (glucosamine-6-phosphate [1]): < 1e-05 s⁻¹
self-cleavage kobs at 160 uM GlcN6P (glucosamine-6-phosphate [4]): < 1e-05 s⁻¹

A6C U46A C71U
self-cleavage kobs at 2500 uM GlcN6P (glucosamine-6-phosphate [2]): < 1e-05 s⁻¹

A6U C34U A36C C67A
self-cleavage kobs at 160 uM GlcN6P (glucosamine-6-phosphate [4]): < 1e-05 s⁻¹

C50G A64C
self-cleavage kobs at 160 uM GlcN6P (glucosamine-6-phosphate [4]): 7.93e-05 ± 2.1e-05 s⁻¹
self-cleavage kobs at 2500 uM GlcN6P (glucosamine-6-phosphate [2]): 6.53e-05 ± 1.7e-05 s⁻¹
self-cleavage kobs at 10000 uM GlcN6P (glucosamine-6-phosphate [3]): 2.52e-05 ± 1.2e-05 s⁻¹

A6C A15G G32U G35U U45G C67A
self-cleavage kobs at 2500 uM GlcN6P (glucosamine-6-phosphate [2]): < 1e-05 s⁻¹

U46C U49G G59C G66C
self-cleavage kobs at 640 uM GlcN6P (glucosamine-6-phosphate [1]): < 1e-05 s⁻¹

G40C G51C C70A
self-cleavage kobs at 640 uM GlcN6P (glucosamine-6-phosphate [1]): < 1e-05 s⁻¹
self-cleavage kobs at 160 uM GlcN6P (glucosamine-6-phosphate [4]): < 1e-05 s⁻¹
self-cleavage kobs at 2500 uM GlcN6P (glucosamine-6-phosphate [2]): < 1e-05 s⁻¹

G41C A42C C68A
self-cleavage kobs at 640 uM GlcN6P (glucosamine-6-phosphate [1]): < 1e-05 s⁻¹
self-cleavage kobs at 160 uM GlcN6P (glucosamine-6-phosphate [4]): < 1e-05 s⁻¹
self-cleavage kobs at 2500 uM GlcN6P (glucosamine-6-phosphate [2]): < 1e-05 s⁻¹

A36G A48G U55A
self-cleavage kobs at 160 uM GlcN6P (glucosamine-6-phosphate [4]): < 1e-05 s⁻¹

A53U U69G
self-cleavage kobs at 640 uM GlcN6P (glucosamine-6-phosphate [1]): 4.69e-05 ± 1.2e-05 s⁻¹
self-cleavage kobs at 160 uM GlcN6P (glucosamine-6-phosphate [4]): 6.15e-05 ± 1.2e-05 s⁻¹
self-cleavage kobs at 2500 uM GlcN6P (glucosamine-6-phosphate [2]): 8.29e-05 ± 9.4e-06 s⁻¹
self-cleavage kobs at 10000 uM GlcN6P (glucosamine-6-phosphate [3]): 4.84e-05 ± 1.2e-05 s⁻¹

G37C A39C C50U G51A
self-cleavage kobs at 160 uM GlcN6P (glucosamine-6-phosphate [4]): < 1e-05 s⁻¹
self-cleavage kobs at 2500 uM GlcN6P (glucosamine-6-phosphate [2]): < 1e-05 s⁻¹

G44C G60U
self-cleavage kobs at 640 uM GlcN6P (glucosamine-6-phosphate [1]): < 1e-05 s⁻¹
self-cleavage kobs at 160 uM GlcN6P (glucosamine-6-phosphate [4]): < 1e-05 s⁻¹
self-cleavage kobs at 2500 uM GlcN6P (glucosamine-6-phosphate [2]): < 1e-05 s⁻¹
self-cleavage kobs at 10000 uM GlcN6P (glucosamine-6-phosphate [3]): < 1e-05 s⁻¹

A39G G60U G66U C67A
self-cleavage kobs at 640 uM GlcN6P (glucosamine-6-phosphate [1]): < 1e-05 s⁻¹
self-cleavage kobs at 10000 uM GlcN6P (glucosamine-6-phosphate [3]): < 1e-05 s⁻¹

G29A U30G G35A G38U U46A C71G
self-cleavage kobs at 160 uM GlcN6P (glucosamine-6-phosphate [4]): < 1e-05 s⁻¹

A6C A15U
self-cleavage kobs at 160 uM GlcN6P (glucosamine-6-phosphate [4]): < 1e-05 s⁻¹

G7C G62C A64G
self-cleavage kobs at 2500 uM GlcN6P (glucosamine-6-phosphate [2]): < 1e-05 s⁻¹

U46C G63A
self-cleavage kobs at 640 uM GlcN6P (glucosamine-6-phosphate [1]): < 1e-05 s⁻¹
self-cleavage kobs at 2500 uM GlcN6P (glucosamine-6-phosphate [2]): < 1e-05 s⁻¹
self-cleavage kobs at 10000 uM GlcN6P (glucosamine-6-phosphate [3]): < 1e-05 s⁻¹

G59A G62A
self-cleavage kobs at 640 uM GlcN6P (glucosamine-6-phosphate [1]): < 1e-05 s⁻¹
self-cleavage kobs at 160 uM GlcN6P (glucosamine-6-phosphate [4]): < 1e-05 s⁻¹
self-cleavage kobs at 2500 uM GlcN6P (glucosamine-6-phosphate [2]): < 1e-05 s⁻¹
self-cleavage kobs at 10000 uM GlcN6P (glucosamine-6-phosphate [3]): < 1e-05 s⁻¹

G41U A52C C68U
self-cleavage kobs at 640 uM GlcN6P (glucosamine-6-phosphate [1]): < 1e-05 s⁻¹
self-cleavage kobs at 2500 uM GlcN6P (glucosamine-6-phosphate [2]): < 1e-05 s⁻¹

U47C A52U
self-cleavage kobs at 640 uM GlcN6P (glucosamine-6-phosphate [1]): 3.84e-05 ± 1.6e-05 s⁻¹
self-cleavage kobs at 2500 uM GlcN6P (glucosamine-6-phosphate [2]): 0.000145 ± 2.3e-05 s⁻¹
self-cleavage kobs at 10000 uM GlcN6P (glucosamine-6-phosphate [3]): 0.000231 ± 4.7e-05 s⁻¹

G38C G44U G51C A52C C71U
self-cleavage kobs at 640 uM GlcN6P (glucosamine-6-phosphate [1]): < 1e-05 s⁻¹

C58A G62U
self-cleavage kobs at 640 uM GlcN6P (glucosamine-6-phosphate [1]): < 1e-05 s⁻¹
self-cleavage kobs at 160 uM GlcN6P (glucosamine-6-phosphate [4]): < 1e-05 s⁻¹
self-cleavage kobs at 2500 uM GlcN6P (glucosamine-6-phosphate [2]): < 1e-05 s⁻¹
self-cleavage kobs at 10000 uM GlcN6P (glucosamine-6-phosphate [3]): < 1e-05 s⁻¹

A39G A48U
self-cleavage kobs at 640 uM GlcN6P (glucosamine-6-phosphate [1]): 0.000139 ± 3.1e-05 s⁻¹
self-cleavage kobs at 2500 uM GlcN6P (glucosamine-6-phosphate [2]): 0.000436 ± 8.7e-05 s⁻¹
self-cleavage kobs at 10000 uM GlcN6P (glucosamine-6-phosphate [3]): 0.000774 ± 0.00011 s⁻¹

A36G A42U U56C
self-cleavage kobs at 640 uM GlcN6P (glucosamine-6-phosphate [1]): < 1e-05 s⁻¹
self-cleavage kobs at 160 uM GlcN6P (glucosamine-6-phosphate [4]): < 1e-05 s⁻¹
self-cleavage kobs at 2500 uM GlcN6P (glucosamine-6-phosphate [2]): < 1e-05 s⁻¹

G32C A39G U56G G63C C67A
self-cleavage kobs at 160 uM GlcN6P (glucosamine-6-phosphate [4]): < 1e-05 s⁻¹
self-cleavage kobs at 2500 uM GlcN6P (glucosamine-6-phosphate [2]): < 1e-05 s⁻¹

G40C A64C U65A C67A
self-cleavage kobs at 640 uM GlcN6P (glucosamine-6-phosphate [1]): < 1e-05 s⁻¹

A36U U57G C67G
self-cleavage kobs at 640 uM GlcN6P (glucosamine-6-phosphate [1]): < 1e-05 s⁻¹

G7C A14C G35C U57G
self-cleavage kobs at 2500 uM GlcN6P (glucosamine-6-phosphate [2]): < 1e-05 s⁻¹

U56A G62A
self-cleavage kobs at 160 uM GlcN6P (glucosamine-6-phosphate [4]): < 1e-05 s⁻¹
self-cleavage kobs at 2500 uM GlcN6P (glucosamine-6-phosphate [2]): < 1e-05 s⁻¹

C8A G44C A52G U65A
self-cleavage kobs at 160 uM GlcN6P (glucosamine-6-phosphate [4]): < 1e-05 s⁻¹
self-cleavage kobs at 2500 uM GlcN6P (glucosamine-6-phosphate [2]): < 1e-05 s⁻¹

G37A A39U U54C
self-cleavage kobs at 640 uM GlcN6P (glucosamine-6-phosphate [1]): 0.00016 ± 1.9e-05 s⁻¹
self-cleavage kobs at 160 uM GlcN6P (glucosamine-6-phosphate [4]): 8.28e-05 ± 3.4e-05 s⁻¹
self-cleavage kobs at 2500 uM GlcN6P (glucosamine-6-phosphate [2]): 0.000423 ± 6.7e-05 s⁻¹

C11A A14C
self-cleavage kobs at 160 uM GlcN6P (glucosamine-6-phosphate [4]): < 1e-05 s⁻¹
self-cleavage kobs at 2500 uM GlcN6P (glucosamine-6-phosphate [2]): 3.05e-05 ± 1.3e-05 s⁻¹
self-cleavage kobs at 10000 uM GlcN6P (glucosamine-6-phosphate [3]): 4.9e-05 ± 1.5e-05 s⁻¹
